According to the antibiotic and cytotoxicity screens of Wong et al. (2023):
This is one part of the list.

What was measured:
[1] = test system: HSkMC (human skeletal muscle cells); experiment: cytotoxicity call (relative viability < 0.9); details: 10 µM
[2] = test system: HepG2; experiment: cytotoxicity call (relative viability < 0.9); details: 10 µM
[3] = test system: S. aureus RN4220; experiment: growth inhibition call (relative growth <= 0.2); details: 50 µM

| Compound | cytotoxicity call [1] | cytotoxicity call [2] | growth inhibition call [3] |
| --- | --- | --- | --- |
| O=C(C[C@H]1C[C@@H]2c3cc(NC(=O)Nc4ccc(C(F)(F)F)cc4)ccc3O[C@@H]2[C@H](CO)O1)NCc1cc(F)ccc1F | inactive | inactive | inactive |
| N#Cc1ccc(Oc2ccccn2)cc1 | inactive | inactive | inactive |
| COc1ccc(CN(C)C[C@@H]2Oc3ccc(NC(=O)CCN4CCOCC4)cc3CC(=O)N([C@H](C)CO)C[C@H]2C)cc1 | inactive | inactive | inactive |
| C[C@@H]1CN([C@H](C)CO)S(=O)(=O)c2ccc(C#C[C@@H](C)O)cc2O[C@H]1CN(C)C(=O)c1ccncc1 | inactive | inactive | inactive |
| C[C@@H]1CN([C@H](C)CO)S(=O)(=O)c2ccc(C#Cc3ccncc3)cc2O[C@@H]1CN(C)S(=O)(=O)c1ccccc1 | inactive | active | inactive |
| Cl.O=C(O)c1cn(-c2ccc(F)cc2)c2cc(N3CCNCC3)c(F)cc2c1=O | inactive | inactive | active |
| COC[C@H]1C[C@H](c2ccc(NC(=O)CCCCCCC(=O)NO)cc2)O[C@H](c2ccc([C@H]3O[C@@H](COC)C[C@H](c4ccc(NC(=O)CCCCCCC(=O)NO)cc4)O3)cc2)O1 | inactive | inactive | inactive |
| C[C@@H]1CCCCO[C@@H](CN(C)Cc2ccc(Cl)c(Cl)c2)[C@H](C)CN([C@@H](C)CO)C(=O)c2cc(NC(=O)Cc3ccccc3)ccc2O1 | inactive | active | inactive |
| C[C@@H]1CN([C@H](C)CO)C(=O)c2cc(NC(=O)Nc3ccc4c(c3)OCO4)ccc2O[C@@H](C)CCCCO[C@H]1CN(C)S(=O)(=O)c1ccc(Cl)cc1 | inactive | active | inactive |
